Test results reported in PubChem BioAssay AID1721 (National Center for Advancing Translational Sciences (NCATS), 2009).
The whole screen tested about 290,000 compounds, of which about 1,100 (0.38%) were called active. The inconclusive results got no clear call from the source; some entries with a clear call stand among them for comparison. The call rests on the fitted dose curve; in most records, active means well fitted inhibition curve with a large enough effect; inconclusive means small, poorly fitted or top-dose-only effect, or another doubt; inactive means no such curve, though single readings can be large or run the other way. Where the call is inconclusive, the potency comes from a doubtful curve fit.

molecular target: Pyruvate kinase (Leishmania mexicana) (UniProt Q27686); test: qHTS Assay for Inhibitors of Leishmania Mexicana Pyruvate Kinase (LmPK); settings: purified LmPK, Kinase-Glo ATP luminescence, 1 h; series mostly up to 57.5 µM
Sequence of UniProt Q27686 (Q27686 whole entry, looked up): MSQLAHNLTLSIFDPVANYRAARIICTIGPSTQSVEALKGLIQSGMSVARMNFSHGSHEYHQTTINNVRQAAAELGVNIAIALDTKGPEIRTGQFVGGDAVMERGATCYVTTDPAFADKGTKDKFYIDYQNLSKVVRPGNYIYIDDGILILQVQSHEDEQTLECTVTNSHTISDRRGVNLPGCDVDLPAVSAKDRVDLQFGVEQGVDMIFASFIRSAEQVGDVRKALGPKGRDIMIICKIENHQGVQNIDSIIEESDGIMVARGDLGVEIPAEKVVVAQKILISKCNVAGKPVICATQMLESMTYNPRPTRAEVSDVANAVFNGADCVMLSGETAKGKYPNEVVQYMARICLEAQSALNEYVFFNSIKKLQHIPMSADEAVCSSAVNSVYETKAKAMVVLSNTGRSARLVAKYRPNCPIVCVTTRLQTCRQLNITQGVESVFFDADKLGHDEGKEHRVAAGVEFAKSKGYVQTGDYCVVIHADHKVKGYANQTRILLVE
How it was run: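 Screened at intermediate enzyme activity to detect both inhibitors and activators: LmPK at 0.1 nM, with a 0.5 nM enzyme column as activation reference. PEP 0.5 mM, ADP 0.1 mM; ATP detected by luminescence after 1 h.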
Potency means the concentration at half of the fitted maximal effect; tags describe the fitted curve by direction and shape.

Q: `CC(=O)N/C(=C\c1ccccc1)C(=O)OCc1cc(C)ccc1C` was tested. Which Potency did it give?
A: inconclusive: 5.01 µM [falling, single point]

Q: With `COc1ccc2nc(-c3ccccn3)[nH]c2c1` as the compound, how does the Potency read?
A: inconclusive: 15.8 µM [falling, partial curve]

Q: For `CCc1c(C)[nH]c2ccc(OC)cc2c1=S`, which Potency is on record?
A: inconclusive: 10 µM [falling, partial curve]

Q: With `O=C1/C(=C/c2ccco2)CCc2ccccc21` as the compound, how does the Potency read?
A: active: 12.6 µM

Q: Which Potency does the source give for `C/C(=N/NC(=O)Cc1cccn1C)c1ccccc1` here?
A: inactive

Q: With `CC(c1ccc(F)cc1)n1c(-c2cccs2)n[nH]c1=S` (stereo not drawn) as the compound, how does the Potency read?
A: inconclusive: 25.1 µM [falling, single point]

Q: With `COc1ccccc1NC(=O)C(=O)N/N=C(\C)CC(=O)Nc1ccccc1C(F)(F)F` as the compound, how does the Potency read?
A: inactive

Q: For `Cc1cccc(-c2cc(N)n(-c3ccccc3)n2)c1`, which Potency is on record?
A: inconclusive: 31.6 µM [falling, single point]

Q: For `COc1ccc(C(c2oc(CO)cc(=O)c2O)c2oc(CO)cc(=O)c2O)cc1OC`, which Potency is on record?
A: inactive

Q: With `COc1ccccc1C(=O)Nc1ccc(NC(=O)c2ccco2)c(C)c1` as the compound, how does the Potency read?
A: active: 15.8 µM

Q: For `Fc1cccc(Cl)c1CNCCCSc1ncccn1`, which Potency is on record?
A: inactive

Q: How did the Potency turn out when `Cc1nc2cc(C)c(C)cc2s1` was run?
A: inactive

Q: `COc1ccccc1N=Cc1c(O)n(C)c(=O)n(C)c1=O` was tested. Which Potency did it give?
A: inconclusive: 14.1 µM [falling, partial curve]

Q: With `c1coc(-c2nnc(-c3ccco3)nn2)c1` as the compound, how does the Potency read?
A: inconclusive: 31.6 µM [falling, single point]

Q: `COc1ccc(S(=O)(=O)NCCSCc2ccco2)cc1` was tested. Which Potency did it give?
A: inactive

Q: How did the Potency turn out when `N/C(=N\OC(=O)/C=C/c1ccccc1Cl)c1ccccn1` was run?
A: inconclusive: 17.8 µM [falling, partial curve]

Q: For `COc1ccc(NC(=O)Nc2ccc(N(C)C)cc2)cc1`, which Potency is on record?
A: inconclusive: 28.2 µM [falling, single point]

Q: Which Potency does the source give for `COC1=C(Nc2ccccc2OC)C(=O)c2ccccc2C1=O` here?
A: inactive

Q: For `O=c1oc(-c2ccccc2)nc2sc3c(c12)CCCC3`, which Potency is on record?
A: inconclusive: 28.2 µM [falling, single point]

Q: `CC(C)OC(=O)c1ccc(COC(=O)c2cnccn2)cc1` was tested. Which Potency did it give?
A: inconclusive: 25.1 µM [falling, partial curve]

Q: For `COc1cccc(C=Nc2ccc3c(c2)OCCO3)c1O`, which Potency is on record?
A: inconclusive: 28.2 µM [falling, partial curve]

Q: Which Potency does the source give for `Cc1cc(C)n2nc(SCc3nnc(-c4ccc(F)cc4)o3)nc2n1` here?
A: inactive

Q: Which Potency does the source give for `Cc1ccc2cc(/C=N/Nc3nc4ccccc4[nH]3)c(Cl)nc2c1` here?
A: inconclusive: 11.2 µM [falling, partial curve]

Q: How did the Potency turn out when `CCCC(=O)Nc1ccc(C2C(=O)c3ccccc3C2=O)cc1` was run?
A: inconclusive: 28.2 µM [falling, single point]

Q: Which Potency does the source give for `O=C(O)c1ccc(N=Nc2c(O)[nH]c3ccccc23)cc1` here?
A: active: 14.1 µM

Q: Which Potency does the source give for `CCOc1ccc2nc(NC(=O)c3ccccn3)sc2c1` here?
A: inconclusive: 12.6 µM [falling, partial curve]

Q: With `COc1cccc(/C=N/NC(=O)c2ccoc2C)c1` as the compound, how does the Potency read?
A: active: 12.6 µM

Q: Which Potency does the source give for `O=C(Oc1ccc(-c2nc(-c3ccccn3)no2)cc1)c1ccccc1` here?
A: inconclusive: 10 µM [falling, partial curve]

Q: How did the Potency turn out when `CCC(C)(C)n1nnnc1C(c1ccc2ncccc2c1)N1CCN(c2ccc(O)cc2)CC1` (stereo not drawn) was run?
A: inconclusive: 25.1 µM [falling, single point]

Q: With `CC(C)(C)NC(=O)C(c1ccncc1)N(C(=O)Cn1nnc(-c2ccc(F)cc2)n1)c1ccccc1` (stereo not drawn) as the compound, how does the Potency read?
A: active: 8.91 µM

Q: Which Potency does the source give for `Cc1ccc(-c2nc3cc(Cl)ccc3o2)cc1` here?
A: inconclusive: 20 µM [falling, single point]

Q: With `Cc1ccsc1/C=C1/C(=O)NN(c2ccccc2)C1=O` as the compound, how does the Potency read?
A: inconclusive: 35.5 µM [falling, partial curve]

Q: For `CCCCCCn1c(O)c(C=NC2CCCCC2N)c(=O)[nH]c1=O` (stereo not drawn), which Potency is on record?
A: inactive

Q: With `O=C(O)Cn1nnc(COc2ccccc2)n1` as the compound, how does the Potency read?
A: inactive

Q: With `O=S(=O)(Nc1ccc(O)c2ccccc12)c1cccs1` as the compound, how does the Potency read?
A: active: 11.2 µM

Q: With `O=C(O)Cc1ccc2sc(-c3ccccc3)nc2c1` as the compound, how does the Potency read?
A: inconclusive: 15.8 µM [falling, partial curve]

Q: Which Potency does the source give for `CCOc1ccc(/C=C2\CCc3ccccc3C2=O)cc1` here?
A: inconclusive: 4.47 µM [falling, full curve]

Q: With `CCOc1ccc(-n2c(-c3ccco3)n[nH]c2=S)cc1` as the compound, how does the Potency read?
A: inconclusive: 12.6 µM [falling, partial curve]

Q: With `O=C(NCCNC1CCC(c2ccccc2)CC1)c1cccs1` (stereo not drawn) as the compound, how does the Potency read?
A: inactive

Q: Which Potency does the source give for `Cc1ccccc1C(=O)c1cccn1CC(=O)NCc1ccc2c(c1)OCO2` here?
A: inactive

Q: With `O=c1oc2cc(O)ccc2cc1-c1ccc(F)cc1` as the compound, how does the Potency read?
A: inconclusive: 14.1 µM [falling, partial curve]

Q: Which Potency does the source give for `Cc1ccc(C)c(-n2c(-c3csc(C)c3)n[nH]c2=S)c1` here?
A: active: 7.94 µM

Q: With `O=C1c2ccccc2C(=O)c2c(Nc3ccc(CCO)cc3)ccc(O)c21` as the compound, how does the Potency read?
A: inconclusive: 14.1 µM [falling, partial curve]

Q: With `Oc1cc2ccccc2cc1-c1n[nH]c(=S)o1` as the compound, how does the Potency read?
A: inconclusive: 28.2 µM [falling, single point]

Q: `Cc1ccoc1C(=O)Nc1ccc(CC(=O)O)cc1` was tested. Which Potency did it give?
A: inconclusive: 28.2 µM [falling, partial curve]

Q: How did the Potency turn out when `CCCCN(C)C(=O)c1cc2cc3ccc(OC)cc3nc2s1` was run?
A: active: 14.1 µM

Q: Which Potency does the source give for `O=C(/C=C/c1ccccc1)c1ccc2c(c1)OCCCCO2` here?
A: inconclusive: 28.2 µM [falling, partial curve]

Q: For `O=C1N=c2ccccc2=C1c1sc(=S)n(NC(=O)c2ccccc2)c1O`, which Potency is on record?
A: inconclusive: 35.5 µM [falling, single point]

Q: With `NNCc1cccc(O)c1` as the compound, how does the Potency read?
A: inactive

Q: Which Potency does the source give for `COc1ccc(N=C(N)N=C(N)N)c(OC)c1` here?
A: inactive

Q: With `O=C(Cc1ccccc1)NCc1n[nH]c(=S)n1-c1ccc(Br)cc1` as the compound, how does the Potency read?
A: inconclusive: 15.8 µM [falling, single point]

Q: How did the Potency turn out when `Nc1cc(C(=O)O)c(N)c2c1C(=O)c1ccccc1C2=O` was run?
A: active: 25.1 µM

Q: For `CC(C)c1cc(C(=O)Nc2cccc(Cl)c2)no1`, which Potency is on record?
A: inconclusive: 14.1 µM [falling, partial curve]
